This is one part of the list. Sequences were assembled here from the parent chain. Inactive controls read about 0.05.
B1: TEV protease; numbered along this chain (parent)
chain: MGESLFKGPRDYNPISSSICHLTNESDGHTTSLYGIGFGPFIITNKHLFRRNNGTLVVQSLHGVFKVKDTTTLQQHLVDGRDMIIIRMPKDFPPFPQKLKFREPQREERICLVTTNFQTKSMSSMVSDTSCTFPSGDGIFWKHWIQTKDGQCGSPLVSTRDGFIVGIHSASNFTNTNNYFTSVPKNFMELLTNQEAQQWVSGWRLNADSVLWGGHKVFMVKPEEPFQPVKEATQL

Variants of: B1
Assay: raw area under fraction-flipped curve 0-4 h after induction (AUC4h, not background-subtracted), DNA-recorder readout of cleavage of the substrate (dimensionless); higher = more cleavage of the substrate by the protease variant
Settings: temperature: 34 °C; time window: 0-4 h after rhamnose induction
Procedure: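 In vivo DNA recorder in E. coli TOP10(DE3) ΔrhaA at 34 °C. Each TEVp single-site mutant (parent TEVp 0) is paired with a single-site variant of the 7-mer TEVs (canonical ENLYFQ|S). The substrate sits between flexible linkers in a Bxb1-sfGFP-TEVs-SsrA fusion, so cleavage stabilises Bxb1 and speeds flipping of a recombination array, read by NGS. The value is the raw area under the fraction-flipped curve over 0-4 h after rhamnose induction (AUC4h), with ≥20 reads per time point. It is not background-subtracted; inactive controls average about 0.047.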
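Further: Bxb1 expression induced with 0.2% (w/v) L-rhamnose at OD600 near 0.5, cultures sampled hourly, flipped fraction per protease–substrate barcode pair counted by paired-end Illumina sequencing.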

Variant | area with substrate ENAYFQS | area with substrate ENDYFQS | area with substrate ENEYFQS | area with substrate ENFYFQS | area with substrate ENGYFQS | area with substrate ENMYFQS | area with substrate ENNYFQS | area with substrate ENQYFQS | area with substrate ENRYFQS | area with substrate ENSYFQS | area with substrate ENWYFQS | area with substrate ENYYFQS | area with substrate ENIYFQS | area with substrate ENKYFQS | area with substrate ENTYFQS | area with substrate ENCYFQS | area with substrate ENPYFQS | area with substrate ENHYFQS | area with substrate ENVYFQS
MGESLFKGPRDYNPISSSICHLTNESDGHTTSLYGIGFGPFIITNKHLFRRNNGTLVVQSLHGVFKVKDTTTLQQHLVDGRDMIIIRMPKDFPPFPQKLKFREPQREERICLVTTNFQTKSMSSGVSDTSCTFPSGDGIFWKHWIQTKDGQCGSPLVSTRDGFIVGIHSASNFTNTNNYFTSVPKNFMELLTNQEAQQWVSGWRLNADSVLWGGHKVFMVKPEEPFQPVKEATQL [M125G] | 0.0745 | 0.0579 | 0.063 | 0.0734 | 0.0713 | 0.103 | 0.0476 | 0.0522 | 0.0518 | 0.0476 | 0.0164 | 0.0616 |  |  |  |  |  |  | 
MGESLFKGPRDYNPISSSICHLTNESDGHTTSLYGIGFGPFIITNKHLFRRNNGTLVVQSLHGVFKVKDTTTLQQHLVDGRDMIIIRMPKDFPPFPQKLKFREPQREERICLVTTNFQTKSMSSMVSDTSCTHPSGDGIFWKHWIQTKDGQCGSPLVSTRDGFIVGIHSASNFTNTNNYFTSVPKNFMELLTNQEAQQWVSGWRLNADSVLWGGHKVFMVKPEEPFQPVKEATQL [F133H] | 0.0661 | 0.0533 |  | 0.0574 |  | 0.0754 |  | 0.0569 |  | 0.0692 | 0.0637 |  | 0.128 | 0.0531 | 0.0704 |  |  |  | 
MGESLFKGPRDYNPISSSICHLTNESDGHTTSLYGIGFGPFIITNKHLFRRNNGTLVVQSLHGVFKVKDTTTLQQHLVDGRDMIIIRMPKDFPPFPQKLKFREPQREERICLVTTNFQTKSMSSMVSDTSCTRPSGDGIFWKHWIQTKDGQCGSPLVSTRDGFIVGIHSASNFTNTNNYFTSVPKNFMELLTNQEAQQWVSGWRLNADSVLWGGHKVFMVKPEEPFQPVKEATQL [F133R] | 0.065 | 0.0524 | 0.0579 | 0.0605 | 0.0347 | 0.0897 | 0.0695 | 0.0491 | 0.0588 | 0.0679 |  | 0.0645 |  | 0.066 | 0.0679 | 0.074 | 0.0738 |  | 
MGESLFKGPRDYNPISSSICHLTNESDGHTTSLYGIGFGPFIITNKHLFRRNNGTLVVQSLHGVFKVKDTTTLQQHLVDGRDMIIIRMPKDFPPFPQKLKFREPQREERICLVTTNFQTKSMSSMVSDTSCTFPWGDGIFWKHWIQTKDGQCGSPLVSTRDGFIVGIHSASNFTNTNNYFTSVPKNFMELLTNQEAQQWVSGWRLNADSVLWGGHKVFMVKPEEPFQPVKEATQL [S135W] | 0.0505 |  | 0.0457 | 0.0526 | 0.0762 | 0.064 |  | 0.0629 | 0.0634 | 0.0585 | 0.06 |  |  | 0.0681 |  | 0.0481 | 0.0422 | 0.0352 | 0.0556
MGESLFKGPRDYNPISSSICHLTNESDGHTTSLYGIGFGPFIITNKHLFRRNNGTLVVQSLHGVFKVKDTTTLQQHLVDGRDMIIIRMPKDFPPFPQKLKFREPQREERICLVTTNFQTKSMSSMVSDTSCTFPCGDGIFWKHWIQTKDGQCGSPLVSTRDGFIVGIHSASNFTNTNNYFTSVPKNFMELLTNQEAQQWVSGWRLNADSVLWGGHKVFMVKPEEPFQPVKEATQL [S135C] | 0.0616 | 0.0626 | 0.0628 | 0.0625 | 0.0556 | 0.0445 | 0.0628 | 0.0571 | 0.0623 | 0.0563 | 0.0746 |  | 0.201 |  | 0.0421 | 0.0502 | 0.0509 | 0.0483 | 0.0648
MGESLFKGPRDYNPISSSICHLTNESDGHTTSLYGIGFGPFIITNKHLFRRNNGTLVVQSLHGVFKVKDTTTLQQHLVDGRDMIIIRMPKDFPPFPQKLKFREPQREERICLVTTNFQTKSMSSMVSDTSVTFPSGDGIFWKHWIQTKDGQCGSPLVSTRDGFIVGIHSASNFTNTNNYFTSVPKNFMELLTNQEAQQWVSGWRLNADSVLWGGHKVFMVKPEEPFQPVKEATQL [C131V] | 0.0702 | 0.0563 | 0.0382 |  | 0.0747 |  | 0.0682 |  | 0.0629 |  |  | 0.0455 |  | 0.052 |  |  |  |  | 
MGESLFKGPRDYNPISSSICHLTNESDGHTTSLYGIGFGPFIITNKHLFRRNNGTLVVQSLHGVFKVKDTTTLQQHLVDGRDMIIIRMPKDFPPFPQKLKFREPQREERICLVTTNFQTKSMSSMVCDTSCTFPSGDGIFWKHWIQTKDGQCGSPLVSTRDGFIVGIHSASNFTNTNNYFTSVPKNFMELLTNQEAQQWVSGWRLNADSVLWGGHKVFMVKPEEPFQPVKEATQL [S127C] | 0.0628 | 0.0589 | 0.0626 | 0.0669 | 0.0564 |  | 0.0691 | 0.0609 | 0.0573 | 0.0654 | 0.0043 | 0.057 |  | 0.0642 | 0.0627 | 0.0648 | 0.0566 |  | 0.0849
MGESLFKGPRDYNPISSSICHLTNESDGHTTSLYGIGFGPFIITNKHLFRRNNGTLVVQSLHGVFKVKDTTTLQQHLVDGRDMIIIRMPKDFPPFPQKLKFREPQREERICLVTTNFQTKSMSSMVWDTSCTFPSGDGIFWKHWIQTKDGQCGSPLVSTRDGFIVGIHSASNFTNTNNYFTSVPKNFMELLTNQEAQQWVSGWRLNADSVLWGGHKVFMVKPEEPFQPVKEATQL [S127W] | 0.0568 | 0.0637 |  |  | 0.0435 |  | 0.0785 | 0.0582 | 0.0657 | 0.0555 | 0.0304 |  |  |  |  | 0.0707 |  |  | 0.053
MGESLFKGPRDYNPISSSICHLTNESDGHTTSLYGIGFGPFIITNKHLFRRNNGTLVVQSLHGVFKVKDTTTLQQHLVDGRDMIIIRMPKDFPPFPQKLKFREPQREERICLVTTNFQTKSMSSMVQDTSCTFPSGDGIFWKHWIQTKDGQCGSPLVSTRDGFIVGIHSASNFTNTNNYFTSVPKNFMELLTNQEAQQWVSGWRLNADSVLWGGHKVFMVKPEEPFQPVKEATQL [S127Q] | 0.0544 | 0.0627 | 0.05 |  |  |  | 0.0676 | 0.0638 |  | 0.056 | 0.0475 | 0.0621 | 0.0664 |  | 0.0621 | 0.0654 | 0.0574 |  | 0.0689

Reference: the supplement of paper PMC12217912
